# Results from publication PMC4336329 (PLoS ONE, 2015).
# Among all 310,000 compounds or so, about 14,000 (4.5%) showed an effect of 50% or more. Effects have a minus sign here. The list shows a part of the results.
# Molecular target: human ether-à-go-go-related gene (hERG) potassium channel (human, UniProt Q12809)
# Assay: primary screen, population patch clamp on CHO cells stably expressing hERG
# 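Further: peak tail current of the secondary pulse compared with the same well before compound.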
# Chain of human ether-à-go-go-related gene (hERG) potassium channel (Q12809 whole entry, looked up): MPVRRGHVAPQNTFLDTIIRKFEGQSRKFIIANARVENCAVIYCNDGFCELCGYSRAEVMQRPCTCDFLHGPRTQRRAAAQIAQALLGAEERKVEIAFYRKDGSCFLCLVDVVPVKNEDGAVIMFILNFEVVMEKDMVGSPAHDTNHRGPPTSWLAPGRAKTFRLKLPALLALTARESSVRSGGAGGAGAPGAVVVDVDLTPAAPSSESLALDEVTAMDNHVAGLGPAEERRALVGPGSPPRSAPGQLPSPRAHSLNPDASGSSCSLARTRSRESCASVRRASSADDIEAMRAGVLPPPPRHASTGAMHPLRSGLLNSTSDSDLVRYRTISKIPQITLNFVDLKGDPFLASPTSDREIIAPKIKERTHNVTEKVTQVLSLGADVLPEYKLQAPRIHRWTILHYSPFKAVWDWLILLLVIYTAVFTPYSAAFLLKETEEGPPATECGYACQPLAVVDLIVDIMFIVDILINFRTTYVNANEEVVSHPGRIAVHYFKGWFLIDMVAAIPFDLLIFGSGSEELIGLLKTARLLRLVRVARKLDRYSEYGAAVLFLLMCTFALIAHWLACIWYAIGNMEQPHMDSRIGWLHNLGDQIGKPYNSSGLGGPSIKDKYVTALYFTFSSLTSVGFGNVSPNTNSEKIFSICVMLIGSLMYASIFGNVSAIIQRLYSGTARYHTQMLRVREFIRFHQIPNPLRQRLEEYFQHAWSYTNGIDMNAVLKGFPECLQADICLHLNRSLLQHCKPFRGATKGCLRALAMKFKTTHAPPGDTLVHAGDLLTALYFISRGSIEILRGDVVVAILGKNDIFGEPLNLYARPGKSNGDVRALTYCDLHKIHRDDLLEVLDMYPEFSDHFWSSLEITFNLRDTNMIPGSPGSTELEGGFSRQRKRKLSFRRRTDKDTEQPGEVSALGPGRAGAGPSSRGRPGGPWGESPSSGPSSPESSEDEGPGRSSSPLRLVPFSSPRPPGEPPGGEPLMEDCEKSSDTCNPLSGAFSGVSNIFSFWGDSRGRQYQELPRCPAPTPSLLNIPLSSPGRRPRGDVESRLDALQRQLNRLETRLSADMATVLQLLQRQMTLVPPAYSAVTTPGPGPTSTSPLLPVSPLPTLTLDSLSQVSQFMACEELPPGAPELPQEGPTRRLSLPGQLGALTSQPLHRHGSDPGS
row,Structure (SMILES),"hERG current change (%, negative = inhibition) at 10uM [%]"
1,COc1ccc(C(=O)C[n+]2ccc(-c3nnc4n3CCCCC4)cc2)cc1.[Br-],13.2
2,CC(C)Cn1c(C(C)NC(=O)Cc2ccccc2)nc2ccccc21 (stereo not drawn),-1.69
3,COc1ccc(C(=O)CSc2nccn2C)c(OC)c1,1.09
4,COc1ccc(-c2nnc(SCC(=O)N3CCC(Cc4ccccc4)CC3)o2)cc1OC,-18.3
5,CC1=C(C(=O)OCc2ccccc2)C(c2ccc(Br)cc2)NC(=O)N1CCCCCC(=O)O (stereo not drawn),-11.6
6,CCc1ccc2[nH]c(=O)c(CN(CCN(CC)CC)C(=O)Nc3ccccc3OC)cc2c1,-76.5
7,COC(=O)c1cnc(Nc2cccc(C(F)(F)F)c2)c([N+](=O)[O-])c1,-12.3
8,COC(=O)C1=C(C)N(c2ccc(F)c(Cl)c2)C(=O)C1,-4.92
9,Cc1ccc(-c2n[nH]c(=O)c3ccccc23)cc1S(=O)(=O)NCCO,-12.1
10,O=c1[nH]c2ccc(S(=O)(=O)NCc3ccccc3)cc2[nH]1,16.8
11,COc1cccc(N(CC(=O)NCCSCc2ccc(C)cc2)S(C)(=O)=O)c1,3.33
12,O=C(NCc1ccc(Cl)cc1)c1ncn[nH]1,6.7
13,C=CCc1cccc2cc(C(=O)Nc3ccc(F)cc3)c(=O)oc12,5.83
14,CN1CCN(CC(=O)Nc2cc(N(C)C)nc3ccccc23)CC1.Cl,8.25
15,O=c1nc(/C=C/c2ccc(-c3ccc(F)cc3)o2)cc(C(F)(F)F)[nH]1,11.2
16,O=C(C1=C[C@@H]2[C@H]3C(=O)N(c4ccc(Cl)cc4)C(=O)[C@H]3[C@@H](C(=O)c3ccc(Cl)cc3)N2C=C1)c1ccccc1,6.92
17,C=CCOc1ccccc1NC(=O)CN1C(=O)CNC1=O,23.6
18,Cc1nnc(NC(=O)c2ccc(S(=O)(=O)N3CCOCC3)cc2)s1,2.93
19,CCOC(=O)C1CCCN(Cc2nc(CC3CC3)no2)C1 (stereo not drawn),0.541
20,COc1ccc(/C=C(/CC(=O)Nc2ccc(C)cc2)c2nc3ccccc3s2)cc1,3.77
21,Oc1ccc(C(c2nnnn2CCc2ccccc2)N2CCN(c3nc4ccccc4s3)CC2)cc1 (stereo not drawn),9.25
22,CCOC(=O)c1ccc(NC(=S)Nc2ccc(Cl)cn2)cc1,-2.85

row,Structure (SMILES),"hERG current change (%, negative = inhibition) at 10uM [%]"
1,O=C(Nc1cccc(NC(=O)c2cccnc2)c1)c1ccccc1,2.4
2,C=CCn1c(O)c(C(CC)=Nc2ccc(N(C)C)cc2)c(=O)[nH]c1=O,6.81
3,CSc1nc(N2CCOCC2)c2c(c1C#N)CCCCC2,-12.6
4,COc1cc(C(=O)Nc2nnc(Cc3ccccc3)s2)cc(OC)c1OC,-17.6
5,Cc1cc2ncc(-c3ccccc3)nc2cc1C,14.2
6,O=C(O)CC(NC(=O)Cc1ccc(Cl)cc1)c1ccco1 (stereo not drawn),8.55
7,CCCn1c(=O)n(C)c(=O)c2c(SCC(=O)Nc3cc(C)on3)nc(C(C)(C)C)nc21,-28.3
8,CCOC(=O)N1C(=O)[C@@](CC)(c2ccccc2)N1C(=O)OCC,10.5
9,O=C(c1ccc(NC(=O)C(c2ccccc2)c2ccccc2)cc1)c1ccc(C(=O)O)c(C(=O)O)c1,15.1
10,COC(=O)c1ccc(NC(=O)CSc2nnc(C3CC3)n2C)cc1,-4.59
11,C#CCOCCOCCOCCNc1nc(N2CCN(C(=O)[C@H]([C@@H](C)CC)n3cc([C@@H](N)CO)nn3)CC2)nc(N2CCN(C(=O)[C@H](Cc3ccc(O)cc3)n3cc([C@@H](N)CC(C)C)nn3)CC2)n1.Cl,5.13
12,CN(C)c1ccc(NC(=O)CN2C(=O)c3ccccc3C2=O)cc1,10.9
13,Cc1[nH]c2ccccc2c1CN1CCC(Cc2ccccc2)CC1.O=C(O)C(=O)O,-67.4
14,COc1cc2cnc(-c3ccccc3)c(-c3ccc(C(F)(F)F)cc3)c2cc1OC,8.52
15,Cc1ccc(S(=O)(=O)N2CCC(C(=O)NCCC3=CCCCC3)CC2)c(C)c1,-23.6
16,CCN(CC)CCCN=C(C)c1c(O)n(-c2ccccc2)c(=O)[nH]c1=O,-16.6
17,COc1ccccc1CNCC(=O)Nc1cc(S(=O)(=O)N2CCCCCC2)ccc1Cl,2.93
18,COc1cc(NC(=O)COc2ccccc2C)ccc1NC(=O)c1ccco1,37.1
19,CC1(OC(=O)c2ccc(Cl)nc2)C(=O)C=C2C=C(c3ccc(C#N)cc3)OC=C2C1=O (stereo not drawn),-3.07
20,O=C(/C=C/c1ccc2c(c1)OCO2)NCc1ccc(F)cc1,1.09
21,N/C(=N\OC(=O)CCCOc1ccccc1)c1ccc(Br)cc1,8.83
22,COc1ccccc1N1CCN(C(=O)c2sc3ncn(CC(=O)N4CCC(C)CC4)c(=O)c3c2C)CC1,-29.3

row,Structure (SMILES),"hERG current change (%, negative = inhibition) at 10uM [%]"
1,Cc1cc(NC(=O)C2CCCN2C(=O)Nc2c(C)cccc2C)ccc1-n1cnnn1 (stereo not drawn),-10.9
2,COc1cccc(-c2csc(NC(=O)Oc3ccccc3)n2)c1,-7.48
3,COc1ccc(-c2ccc3c(N)c(C(=O)c4ccc(OC)c(OC)c4)sc3n2)cc1,-0.284
4,CCCN(c1ccc(OCC)cc1)S(=O)(=O)c1ccc2c(c1)CCN2C(=O)CCC(=O)O,22.3
5,O=C(COC(=O)Cc1c[nH]c2ccccc12)NC1CCS(=O)(=O)C1 (stereo not drawn),10.1
6,NS(=O)(=O)c1ccc(NC(=O)Cn2ncc3c2-c2ccccc2OC3)cc1,15.2
7,Cc1ccc(-c2noc(C3CCCN(C(=O)c4ccccc4Br)C3)n2)o1 (stereo not drawn),-42.6
8,CC(OC(=O)CC1CC2CCC1C2)C(=O)Nc1ccc(C(N)=O)cc1 (stereo not drawn),-16
9,COc1ccc2oc(-c3cccc(NC(=O)CSc4ccc(Cl)cc4)c3)nc2c1,3.14
10,Cc1ccsc1C(=O)C1CCCN(Cc2cnn(C)c2)C1 (stereo not drawn),12
11,Cn1c(=O)c2cc(S(=O)(=O)NC(C(=O)NCc3cccnc3)c3ccccc3)ccc2n(C)c1=O (stereo not drawn),1.13
12,CCSc1nnc(NC(=O)c2csc3c2CCCC3)s1,-3.14
13,CN(C)S(=O)(=O)c1ccc(Cl)c(NC(=O)c2ccncc2)c1,-32
14,Cc1c(-c2cc(C(=O)O)on2)cnn1C,25.6
15,COc1ccc(OC)c(S(=O)(=O)Nc2c(C)cccc2C)c1,10.8
16,COC(=O)CSc1nn(-c2ccc(F)cc2)c(=S)s1,-2.71
17,CS(=O)(=O)n1nc(OC(=O)c2cccs2)cc1N,15.1
18,CC(OC(=O)c1ncc(Cl)c(Cl)c1Cl)C(=O)NC1(C#N)CCCCC1 (stereo not drawn),8.35
19,O=C(N1CCOCC1)N(Cc1ccccc1)c1ccccn1,-4.16
20,CC(C)OC(=O)NCCOC(=O)Nc1ccc(Cl)cc1,54.9
21,CCc1nnc(NCC(=O)N2CCc3ccccc32)s1,-7.75
22,COc1ccc(NC(=O)c2cccnc2)c(OC)c1,0.833

row,Structure (SMILES),"hERG current change (%, negative = inhibition) at 10uM [%]"
1,Cc1nc2ccccc2n1CCc1nc2c3ccccc3nc(SCC#N)n2n1,-20.5
2,COc1ccc(NC(=O)c2ccco2)cc1NC(=O)c1cc2ccccc2o1,3.33
3,O=C(Nc1cc2c(cc1Br)OCCO2)c1cccs1,23.3
4,O=C(CCCO)N/N=C/c1cc(Br)ccc1O,-18.1
5,Cc1cccc(OCC(=O)Nc2nnc(S(=O)(=O)N3CCCCCC3)s2)c1,22.2
6,CCOC(=O)n1c(=O)oc2ccc(Cl)cc21,-0.929
7,CC1CN(Cc2c(O)ccc3c(=O)c(-c4ccccc4Cl)coc23)CC(C)O1 (stereo not drawn),-10.3
8,O=C(c1cccc(C(F)(F)F)c1)C1CCCN(Cc2cccc(OCCO)c2)C1 (stereo not drawn),-47.4
9,COc1ccc(-c2cn[nH]c2C)cc1OC,17.7
10,Cc1cccc(Nc2cc(=O)[nH]c(=O)[nH]2)c1C,10.4
11,Cc1ccccc1CC(=O)N1CCCC1,-2.77
12,COC(=O)Cc1ccc(N(Cc2ccccc2F)S(=O)(=O)c2ccc(C)cc2)cc1,-4.8
13,O=C(NC1CCCCC1)N1CCSC1=Nc1ccccc1,-5.04
14,CC1CCc2sc(C(=O)NC3CCCCC3)cc2C1 (stereo not drawn),-5.4
15,COC(=O)c1ccccc1NC(=O)c1noc2c1CC(C(C)(C)C)CC2 (stereo not drawn),17.2
16,O=C(NNS(=O)(=O)c1ccc([N+](=O)[O-])cc1)c1ccc2ccccc2c1O,1.97
17,CC(C)c1ccccc1NC(=S)NC(C)c1ccccc1 (stereo not drawn),-9.02
18,CCCC(=O)c1ccc(CP(=O)(OCC)OCC)o1,19.5
19,COC(=O)c1sccc1NC(=O)Nc1ccc(Cl)c(Cl)c1,14.1
20,CCOP(=O)(OCC)C(NC(C)=O)C(=O)c1ccccc1 (stereo not drawn),23.1
21,COc1ccc2cc(C#N)c(SCC(=O)NNC(=O)Cc3ccccc3)nc2c1,16.2
